Measurements reported in the supplement of paper PMC4967469.
A lower IC50 marks a more sensitive line; a fit beyond the top or the lowest dose is shown as a bound at that dose. For AUC the same curve is integrated over the 256-fold range of doses and scaled to a fraction; the more sensitive the line, the further below 1. For some of these results: Where the top dose is marked as inferred, it is not printed in the source and was worked back from the curve model. For some of these results: Where an entry number is given, a second screen of the drug exists; the two often differ.

Legend:
Experiment in all cases: Viability of human cancer cell lines after 72 h of drug (GDSC screen)
Docetaxel = compound: CC(=O)O[C@@]12CO[C@@H]1C[C@H](O)[C@@]1(C)C(=O)[C@H](O)C3=C(C)[C@@H](OC(=O)[C@H](O)[C@@H](NC(=O)OC(C)(C)C)c4ccccc4)C[C@@](O)([C@@H](OC(=O)c4ccccc4)[C@H]21)C3(C)C [Docetaxel]; conditions: top dose 0.0125 µM
Protocol: (§1)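 Human cancer cell lines in 384-well plates, medium with 10% serum, drug for 72 h over a 256-fold dose range (nine 2-fold or five 4-fold steps up to the top dose). Adherent lines were fixed and stained with the nucleic acid dye Syto60, suspension lines read with resazurin; signal relative to control wells, capped at 0 and 100%. One two-parameter sigmoid per drug and line, fitted in a mixed model over all curves with the slope shared within a line.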

AMG-706 = compound: CC1(C)CNc2cc(NC(=O)c3cccnc3NCc3ccncc3)ccc21 [AMG-706]; conditions: top dose 2 µM; top dose inferred
Protocol: as §1

Cyclopamine = compound: CC1=C2C[C@H]3[C@@H](CC=C4C[C@@H](O)CC[C@@]43C)[C@@H]2CC[C@]12O[C@@H]1C[C@H](C)CN[C@H]1[C@H]2C [Cyclopamine]; conditions: top dose 16 µM; top dose inferred
Protocol: as §1

JNK Inhibitor VIII = compound: CCOc1nc(NC(=O)Cc2cc(OC)ccc2OC)cc(N)c1C#N [JNK Inhibitor VIII]; conditions: top dose 10 µM; top dose inferred
Protocol: as §1

NSC-207895 = compound: CN1CCN(c2ccc([N+](=O)[O-])c3no[n+]([O-])c23)CC1 [NSC-207895]; conditions: top dose 20 µM; top dose inferred
Protocol: as §1

FTI-277 = compound: COC(=O)[C@H](CCSC)NC(=O)c1ccc(NC[C@@H](N)CS)cc1-c1ccccc1 [FTI-277]; conditions: top dose 1.024 µM; top dose inferred
Protocol: as §1

YM155 = compound: COCC[n+]1c2c(n(Cc3cnccn3)c1C)C(=O)c1ccccc1C2=O [YM155]; conditions: top dose 5.12 µM
Protocol: as §1

NVP-TAE684 = compound: COc1cc(N2CCC(N3CCN(C)CC3)CC2)ccc1Nc1ncc(Cl)c(Nc2ccccc2S(=O)(=O)C(C)C)n1 [NVP-TAE684]; conditions: top dose 2 µM
Protocol: as §1

OSI-906 = compound: C[C@]1(O)C[C@@H](c2nc(-c3ccc4ccc(-c5ccccc5)nc4c3)c3c(N)nccn32)C1 [OSI-906]; conditions: top dose 2.56 µM; top dose inferred
Protocol: as §1

SB-715992 = compound: Cc1ccc(C(=O)N(CCCN)[C@@H](c2nc3cc(Cl)ccc3c(=O)n2Cc2ccccc2)C(C)C)cc1 [SB-715992]; conditions: top dose 0.128 µM; top dose inferred
Protocol: as §1

JQ1 = compound: Cc1sc2c(c1C)C(c1ccc(Cl)cc1)=N[C@@H](CC(=O)OC(C)(C)C)c1nnc(C)n1-2 [JQ1]
Protocol: as §1

Belinostat = compound: O=C(/C=C/c1cccc(S(=O)(=O)Nc2ccccc2)c1)NO [Belinostat]; conditions: top dose 20 µM; top dose inferred
Protocol: as §1

CGP-60474 = compound: OCCCNc1cc(-c2ccnc(Nc3cccc(Cl)c3)n2)ccn1 [CGP-60474]; conditions: top dose 0.256 µM; top dose inferred
Protocol: as §1

JNJ-26854165 = compound: c1ccc2c(CCNc3ccc(Nc4ccncc4)cc3)c[nH]c2c1 [JNJ-26854165]; conditions: top dose 10 µM
Protocol: as §1

[1] = top dose 1 µM, screen: GDSC drug entry 1218, top dose inferred
[2] = top dose 2.56 µM, screen: GDSC drug entry 163

Cell Line | AUC (Docetaxel) | IC50 (Docetaxel) | AUC (AMG-706) | IC50 (AMG-706) | AUC (Cyclopamine) | IC50 (Cyclopamine) | AUC (JNK Inhibitor VIII) | IC50 (JNK Inhibitor VIII) | AUC (NSC-207895) | IC50 (NSC-207895) | AUC (FTI-277) | IC50 (FTI-277) | AUC (YM155) | IC50 (YM155) | AUC (NVP-TAE684) | IC50 (NVP-TAE684) | AUC (OSI-906) | IC50 (OSI-906) | AUC (SB-715992) | IC50 (SB-715992) | AUC (JQ1; [1]) | IC50 (JQ1; [1]) | AUC (JQ1; [2]) | IC50 (JQ1; [2]) | AUC (Belinostat) | IC50 (Belinostat) | AUC (CGP-60474) | IC50 (CGP-60474) | AUC (JNJ-26854165) | IC50 (JNJ-26854165)
NCI-H1876 (small cell lung carcinoma, adherent) | 0.93 | > 12.5 nM | 0.981 | > 2000 nM | 0.987 | > 16000 nM | 0.987 | > 10000 nM | 0.953 | > 20000 nM | 0.987 | > 1020 nM | 0.029 | < 20 nM | 0.855 | 1620 nM | 0.987 | > 2560 nM | 0.875 | > 128 nM | 0.986 | > 1000 nM | 0.987 | > 2560 nM | 0.399 | 659 nM | 0.752 | 85.6 nM | 0.983 | > 10000 nM
NCI-SNU-1 (stomach, suspension) | 0.973 | > 12.5 nM | 0.985 | > 2000 nM | 0.985 | > 16000 nM | 0.983 | > 10000 nM | 0.929 | > 20000 nM | 0.976 | > 1020 nM | 0.217 | 45.9 nM | 0.83 | 1320 nM | 0.934 | > 2560 nM | 0.856 | 108 nM | 0.978 | > 1000 nM | 0.79 | 1180 nM | 0.409 | 700 nM | 0.87 | 252 nM | 0.974 | > 10000 nM
NCI-SNU-16 (stomach, suspension) | 0.839 | 7.12 nM | 0.974 | > 2000 nM | 0.98 | > 16000 nM | 0.988 | > 10000 nM | 0.991 | > 20000 nM | 0.991 | > 1020 nM | 0.365 | 143 nM | 0.778 | 712 nM | 0.991 | > 2560 nM | 0.955 | > 128 nM |  |  | 0.991 | > 2560 nM | 0.753 | 5980 nM | 0.73 | 65.9 nM | 0.948 | > 10000 nM
NH-12 (neuroblastoma, adherent) | 0.875 | > 12.5 nM | 0.973 | > 2000 nM | 0.983 | > 16000 nM | 0.98 | > 10000 nM | 0.921 | > 20000 nM | 0.97 | > 1020 nM | 0.56 | 477 nM | 0.939 | > 2000 nM | 0.695 | 608 nM | 0.856 | 124 nM | 0.983 | > 1000 nM | 0.845 | 2200 nM | 0.231 | 185 nM | 0.975 | > 256 nM | 0.961 | > 10000 nM
